Data published in the antibiotic and cytotoxicity screens of Wong et al. (2023).
Some of the results follow.

Tests used:
[1] = tested on: HSkMC (human skeletal muscle cells); test: cytotoxicity call (relative viability < 0.9); details: 10 µM
[2] = tested on: HepG2; test: cytotoxicity call (relative viability < 0.9); details: 10 µM
[3] = tested on: S. aureus RN4220; test: growth inhibition call (relative growth <= 0.2); details: 50 µM

Row | SMILES | cytotoxicity call [1] | cytotoxicity call [2] | growth inhibition call [3]
1 | C[C@@H]1CN([C@@H](C)CO)S(=O)(=O)c2ccc(-c3cncnc3)cc2O[C@@H]1CN(C)C(=O)c1cccc(F)c1 | inactive | inactive | inactive
2 | C[C@@H]1CCCCO[C@H](CN(C)C(=O)Cc2ccccc2)[C@H](C)CN([C@@H](C)CO)C(=O)c2cc(NS(=O)(=O)c3ccc(Cl)cc3)ccc2O1 | inactive | inactive | inactive
3 | C[C@H]1CN([C@@H](C)CO)C(=O)c2cc(Br)cnc2O[C@H]1CN(C)S(=O)(=O)c1ccc(F)cc1 | inactive | inactive | inactive
4 | COC(=O)CC1C(C)(C)C(OC(C)=O)C2CC3=C4CC(=O)OC(c5ccoc5)C4(C)CCC3C1(C)C2=O (configuration not stated) | inactive | inactive | inactive
5 | C[C@@H]1CCCCO[C@@H](CN(C)CC2CC2)[C@H](C)CN([C@H](C)CO)C(=O)c2cc(NC(=O)Nc3ccc4c(c3)OCO4)ccc2O1 | inactive | inactive | inactive
6 | Cc1ccc(S(=O)(=O)Nc2ccc3c(c2)C(=O)N([C@@H](C)CO)C[C@H](C)[C@H](CN(C)S(C)(=O)=O)O3)cc1 | inactive | inactive | inactive
7 | COc1cccc(NC(=O)N(C)C[C@H]2Oc3cc(C#CC4(O)CCCC4)ccc3S(=O)(=O)N([C@@H](C)CO)C[C@H]2C)c1 | inactive | inactive | inactive
8 | COc1cccc(S(=O)(=O)Nc2ccc3c(c2)[C@H]2C[C@H](CC(=O)NC4CCCCC4)O[C@H](CO)[C@H]2O3)c1 | inactive | inactive | inactive
9 | C[C@@H]1CCCCO[C@@H](CN(C)S(=O)(=O)c2ccccc2)[C@H](C)CN([C@H](C)CO)C(=O)c2cc(NC(=O)Nc3ccc(F)cc3)ccc2O1 | inactive | inactive | inactive
10 | COCCOC(=O)N1C(=O)[C@@]2(c3cc(C#CCC(C(=O)OC)C(=O)OC)ccc31)[C@H](C(=O)N1CCCCCCC1)[C@H]1C(=O)O[C@H](c3ccccc3)[C@H](c3ccccc3)N1[C@@H]2c1ccc(O)cc1 | inactive | active | active
11 | CCN1[C@@H]2c3ccc(-c4ccncc4)c(=O)n3C[C@H]1[C@H](CO)[C@H]2C(=O)NCCc1cn(C)cn1 | inactive | inactive | inactive
12 | CC=Cc1ccc2n(c1=O)C[C@H]1[C@H](CO)[C@@H](C(=O)NCCc3cn(C)cn3)N(C(=O)C3CC3)[C@@H]21 | inactive | inactive | inactive
13 | CS(=O)(=O)N(CC(=O)O)Cc1ccccc1 | inactive | inactive | inactive
14 | C[C@@H]1CN([C@@H](C)CO)C(=O)c2cc(NC(=O)NC3CCCCC3)ccc2O[C@@H](C)CCCCO[C@H]1CN(C)C(=O)c1ccncc1 | inactive | inactive | inactive
15 | C[C@H](CO)N1C[C@H](C)[C@H](CN(C)Cc2ccc(Cl)c(Cl)c2)Oc2ccc(NS(=O)(=O)c3ccc(Cl)cc3)cc2C1=O | active | active | inactive
16 | COc1ccc(COCC23Oc4ccccc4[C@H]([C@H]2COC(=O)NCCCCCC(=O)NO)n2c(c4c(c(C(C)=O)c2=O)C(=O)N(C)C4=O)N3C)cc1 | inactive | inactive | inactive
17 | CCCCN(CCCC)CCCOC(=O)c1ccc(N)cc1.O=S(=O)(O)O | inactive | inactive | inactive
18 | COc1ccc(S(=O)(=O)Nc2ccc3c(c2)C(=O)N([C@@H](C)CO)C[C@@H](C)[C@@H](CN(C)S(=O)(=O)c2ccccc2)O3)cc1 | inactive | inactive | inactive
19 | C[C@@H]1CN([C@@H](C)CO)C(=O)c2cccc(NC(=O)C3CC3)c2O[C@H]1CN(C)C(=O)NC1CCCCC1 | inactive | inactive | inactive
20 | COc1ccc(NC(=O)N(C)C[C@H]2OCCCC[C@H](C)Oc3ccc(NC(=O)NC4CCCCC4)cc3C(=O)N([C@H](C)CO)C[C@H]2C)cc1 | inactive | inactive | inactive
21 | CCOC(=O)CNC(=O)c1cc(C)on1 | inactive | inactive | inactive
22 | CC(C)[C@@H](CO)N1C(=O)[C@@H]2[C@H]3C(=O)OCCC/C=C\[C@H]3O[C@]23C=CCN(Cn2nnc4ccccc42)C(=O)[C@@H]13 | inactive | inactive | inactive
23 | C[C@H]1CN([C@@H](C)CO)C(=O)c2cc(NC(=O)Cn3cnnn3)ccc2O[C@H]1CN(C)S(=O)(=O)c1ccccc1 | inactive | inactive | inactive
24 | COc1ccc(S(=O)(=O)Nc2ccc3c(c2)C(=O)N([C@@H](C)CO)C[C@@H](C)[C@H](CN(C)Cc2ccccc2)OCCCC[C@@H](C)O3)cc1 | inactive | inactive | inactive
25 | Cc1noc(C)c1NC(=O)N(C)C[C@@H]1OCCCC[C@@H](C)Oc2ccc(NC(=O)CCCCCC(=O)Nc3ccccc3N)cc2C(=O)N([C@H](C)CO)C[C@@H]1C | inactive | inactive | inactive
26 | C[C@@H]1CCCCO[C@@H](CN(C)S(=O)(=O)c2cn(C)cn2)[C@H](C)CN([C@@H](C)CO)C(=O)c2cc(NS(=O)(=O)c3cn(C)cn3)ccc2O1 | inactive | inactive | inactive
27 | O=C(C[C@@H]1C=C[C@H](NS(=O)(=O)c2ccc(F)cc2)[C@@H](CO)O1)NCc1ccc(Cl)c(Cl)c1 | inactive | inactive | inactive

Row | SMILES | cytotoxicity call [1] | cytotoxicity call [2] | growth inhibition call [3]
28 | C[C@H](CO)N1C[C@H](C)[C@H](CN(C)Cc2ccc(Oc3ccccc3)cc2)Oc2ccc(NC(=O)Nc3ccc4c(c3)OCO4)cc2C1=O | inactive | inactive | inactive
29 | CC(C)(O)c1cn(-c2ccc(-c3cc(F)c(CO)c(S(C)(=O)=O)c3)cc2F)c(C(C)(C)c2c(Cl)cccc2Cl)n1 | inactive | inactive | inactive
30 | C[C@@H]1CN([C@@H](C)CO)S(=O)(=O)c2ccc(C#Cc3ccc(F)cc3)cc2O[C@H]1CN(C)C(=O)CN(C)C | inactive | inactive | inactive
31 | C[C@@H]1CCCCO[C@@H](CN(C)Cc2ccc(C(=O)O)cc2)[C@H](C)CN([C@H](C)CO)C(=O)c2cc(NC(=O)Nc3ccc(F)cc3)ccc2O1 | inactive | inactive | inactive
32 | CNC[C@@H]1Oc2ccc(NS(=O)(=O)c3cn(C)cn3)cc2C(=O)N([C@@H](C)CO)C[C@H]1C | inactive | inactive | inactive
33 | C[C@@H]1CN([C@H](C)CO)C(=O)c2cccc(NC(=O)Nc3ccc(C(F)(F)F)cc3)c2O[C@@H]1CN(C)Cc1ccc(C(=O)O)cc1 | inactive | inactive | inactive
34 | C[C@@H]1CN([C@H](C)CO)C(=O)c2cc(C#Cc3ccc(F)cc3)cnc2O[C@H]1CN(C)CC1CCOCC1 | inactive | inactive | inactive
35 | C[C@@H]1CCCCO[C@@H](CN(C)C)[C@@H](C)CN([C@H](C)CO)C(=O)c2cc(NS(=O)(=O)c3cn(C)cn3)ccc2O1 | inactive | inactive | inactive
36 | C[C@@H]1CN([C@H](C)CO)C(=O)Cc2cc(NS(=O)(=O)c3cn(C)cn3)ccc2O[C@H]1CN(C)Cc1ccc(C(=O)O)cc1 | inactive | inactive | inactive
37 | COc1ccc(NC(=O)Nc2ccc3c(c2)CC(=O)N([C@@H](C)CO)C[C@@H](C)[C@@H](CN(C)Cc2ccc(C(F)(F)F)cc2)O3)cc1 | inactive | active | inactive
38 | C[C@@H]1CN([C@@H](C)CO)C(=O)c2cccc(NS(=O)(=O)c3cn(C)cn3)c2O[C@H]1CN(C)CC1CCCCC1 | inactive | inactive | inactive
39 | CC(C)CC#Cc1cnc2c(c1)C(=O)N([C@H](C)CO)C[C@H](C)[C@H](CN(C)S(=O)(=O)c1cn(C)cn1)O2 | inactive | inactive | inactive
40 | O=C(C[C@@H]1C=C[C@H](NC(=O)Cc2ccccn2)[C@@H](CO)O1)NCCc1ccncc1 | inactive | inactive | inactive
41 | Cc1ccc(S(=O)(=O)Nc2ccc3c(c2)C(=O)N([C@H](C)CO)C[C@H](C)[C@@H](CN(C)C(=O)Nc2cccc4ccccc24)OCCCC[C@@H](C)O3)cc1 | inactive | inactive | inactive
42 | C[C@@H]1CN([C@@H](C)CO)S(=O)(=O)c2ccc(C#Cc3ccccc3F)cc2O[C@@H]1CN(C)C(=O)c1ccc2c(c1)OCO2 | inactive | active | inactive
43 | COc1cc2c(cc1OC)C(=O)OC2 | inactive | inactive | inactive
44 | C[C@@H]1CN([C@H](C)CO)C(=O)c2cc(NS(=O)(=O)c3ccccc3)ccc2O[C@@H](C)CCCCO[C@@H]1CN(C)Cc1ccccc1 | inactive | inactive | inactive
45 | Cc1cc(OCCCS(C)(=O)=O)cc(C)c1-c1cccc(COc2ccc3c(c2)OC[C@H]3CC(=O)O)c1 | active | active | active
46 | Cc1noc(C)c1S(=O)(=O)N(C)C[C@@H]1OCCCC[C@H](C)Oc2ccc(N(C)C)cc2C(=O)N([C@H](C)CO)C[C@@H]1C | inactive | inactive | inactive
47 | NCc1ccc(S(=O)(=O)N2CCOCC2)cc1 | inactive | inactive | inactive
48 | COCC#Cc1cnc2c(c1)C(=O)N([C@H](C)CO)C[C@H](C)[C@@H](CN(C)C(=O)Nc1ccccc1OC)O2 | inactive | inactive | inactive
49 | CC1=CC[C@H](C(C)(C)O)CC1 | inactive | inactive | inactive
50 | COC(=O)CNS(=O)(=O)c1ccsc1C(=O)OC | inactive | inactive | inactive
51 | CO[C@@H]1CN(C)C(=O)c2ccc(NS(=O)(=O)CC(F)(F)F)cc2OC[C@@H](C)N(C(=O)c2ccc3c(c2)OCO3)C[C@H]1C | inactive | inactive | inactive
52 | C[C@@H]1CN([C@H](C)CO)C(=O)c2cc(NS(=O)(=O)c3cn(C)cn3)ccc2O[C@@H]1CN(C)S(=O)(=O)c1ccc(F)cc1 | inactive | inactive | inactive
53 | Cc1ccccc1[C@@H](c1ncccc1C)N(C)C(=O)C1CCN(CCOc2ccc3ccccc3c2)CC1 | inactive | inactive | inactive
54 | C[C@H](CO)N1C[C@H](C)[C@H](CN(C)Cc2ccc(Cl)c(Cl)c2)Oc2ccc(NS(=O)(=O)c3cccs3)cc2C1=O | inactive | inactive | inactive
